The whole screen tested about 340,000 compounds, of which about 12,000 (3.5%) were called active. The shares of active, inactive and inconclusive entries below differ from those in the screen. Calls come from the whole dose curve; as a rule, active = well fitted inhibition curve with a large enough effect; inconclusive = small, poorly fitted or top-dose-only effect, or another doubt; inactive = no such curve, though single readings can be large or run the other way. No potency is given beside an inconclusive call; the fits are too rough.
Assay: qHTS Assay for Inhibitors of Hepatitis C Virus (HCV)
Conditions: Huh7.5.1 HCVcc-Cre (HCVcc is cell-culture hepatitis C virus) infection, luciferase reporter, 44 h; activity change, negative = inhibition: at 41.8 µM (top of the series)
Summary of the method: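 Seed cells (1,000/well) for 4 h; treat with compound and infect with HCVcc-Cre, moi about 0.5. Incubate 44 h, then detect luciferase activity.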
With `CC(C)(C)c1nc(SCC(=O)NNC(=O)c2ccccc2)c2ccccc2n1` the Potency was inconclusive [inhibitor, full curve].
In the case of `COc1ccc(CCNC(=O)c2ccc(CS(=O)(=O)Cc3cccc(C)c3)o2)cc1OC`, the Potency is reported as active: 22.4 µM.
With `Cc1ccc(N(C)S(=O)(=O)c2cccc(C(=O)Nc3ccc(C)cn3)c2)cc1` the Potency was inconclusive [inhibitor, single point].
In the case of `CCOC(=O)c1sc(N/N=C/c2ccccc2)nc1C`, the Potency is reported as inconclusive [inhibitor, single point].
For `Cc1cc(C(=O)CSc2nc(N)cc(=O)[nH]2)c(C)n1CCc1ccc(F)cc1`, the Potency was inconclusive [inhibitor, single point].
For `COc1cc(NC(=O)c2ccccc2)c(OC)cc1NC(=O)CN1CCN(c2ccccn2)CC1`, the Potency was inconclusive [inhibitor, partial curve].
For `CCOc1ccc(NC(=O)C2CCN(S(=O)(=O)c3ccc4c(c3)NC(=O)C(C)S4)CC2)cc1` (stereo not given), the Potency was inconclusive [inhibitor, partial curve].
In the case of `COC(=O)c1ccc(NC(=O)c2sc3nc(-c4ccccc4)cn3c2C)cc1`, the Potency is reported as inconclusive [inhibitor, full curve].
In the case of `Cc1cc(OCC(=O)Nc2ccc(Br)cc2)cc2c1C(=O)CC(C)(C)O2`, the Potency is reported as inconclusive [inhibitor, partial curve].
With `O=C(NCc1ccccn1)c1cc(-c2ccc(Cl)cc2)nc2ccccc12` the Potency was “inactive”.
For `O=C(N/N=C/c1cc(Br)cs1)c1ccccc1[N+](=O)[O-]`, the Potency was inconclusive [inhibitor, single point].
In the case of `CCn1c(COc2cc(C)cc(C)c2)nnc1SCC(=O)N1CCN(c2ccccc2)CC1`, the Potency is reported as inconclusive [inhibitor, partial curve].
With `COc1cc(C=C(c2nc3ccccc3s2)c2nc3ccccc3s2)ccc1O` the Potency was inconclusive [inhibitor, partial curve].
In the case of `CC(C)=CCC/C(C)=C/CNC(=O)C[C@H]1C[C@H](C(=O)N(C(C)C)C(C)C)[C@@]2(C)c3[nH]c4cc(-c5ccco5)ccc4c3CCN2C1=O`, the activity change, negative = inhibition is reported as inactive: -21.6% [at 8.37 µM].
With `Cc1ccc(-c2cc(C(=O)N3CCC4(CC3)OCCO4)no2)cc1` the Potency was “inactive”.
In the case of `O=C1CCC/C(=N\NC(=O)c2ccc(COc3ccccc3-c3ccccc3)cc2)C1`, the Potency is reported as inconclusive [inhibitor, single point].
For `CCCCCCSc1ccc([C@H]2N[C@@](Cc3ccccc3)(C(=O)OC)[C@H]3C(=O)N(C)C(=O)[C@@H]23)cc1OC`, the Potency was inconclusive [inhibitor, partial curve].
In the case of `COc1ccc(N2CCC(CNC(=S)Nc3cc(C)cc(C)c3)C2)cc1` (stereo not given), the Potency is reported as “inactive”.
With `O=S(=O)(NCc1ccc2c(c1)OCO2)c1ccccc1F` the Potency was “inactive”.
With `C=CCn1c(SCCCc2ccccc2)nc2c1c(=O)[nH]c(=O)n2C` the Potency was inconclusive [inhibitor, partial curve].
In the case of `CCN(CC)S(=O)(=O)c1ccc(OC)c(NC(=O)COc2ccc3c(C)cc(=O)oc3c2)c1`, the Potency is reported as inconclusive [inhibitor, single point].
For `CCOc1ccc(NC(=O)Nc2ccc(NC(C)=O)cc2)cc1`, the Potency was “inactive”.
For `S=C(NCCCCc1ccccc1)NCc1ccccc1`, the Potency was inconclusive [inhibitor, single point].
In the case of `COc1ccc(N2C(=O)/C(=C\c3ccco3)N=C2SCC(N)=O)cc1Cl`, the Potency is reported as inconclusive [inhibitor, partial curve, poor fit].
With `CCC(C)Nc1nc(-c2ccccn2)nc2ccccc12` (stereo not given) the Potency was inconclusive [inhibitor, partial curve].
With `Cc1ccc(S(=O)(=O)NN2C(=O)c3ccccc3NC2c2ccccn2)cc1` (stereo not given) the Potency was inconclusive [inhibitor, single point].
In the case of `CC1CN(c2nc(-c3ccccc3)nc3ccccc23)CC(C)O1` (stereo not given), the Potency is reported as inconclusive [inhibitor, full curve].
With `CCOC(=O)c1c(NC(=S)NC(=O)c2ccc(Cn3cc(Cl)cn3)o2)sc2c1CCCCC2` the Potency was inconclusive [inhibitor, partial curve].
For `N#Cc1cc([N+](=O)[O-])ccc1NC(=O)COC(=O)C1CCC(=O)N1` (stereo not given), the Potency was “inactive”.
In the case of `COc1ccc(C2NCCc3c2[nH]c2ccccc32)cc1CN1CCc2cc(OC)c(OC)cc2C1C` (stereo not given), the Potency is reported as active: 11.2 µM.
With `CC(=O)c1cc2c(cc1NC(=O)CSc1nc3ccc(C)cc3[nH]1)OCO2` the Potency was inconclusive [inhibitor, single point].
In the case of `Cc1cc(/C=C(\C#N)C(=O)NCc2cccs2)c(C)n1-c1ccc([N+](=O)[O-])cc1`, the Potency is reported as inconclusive [inhibitor, partial curve].
For `CCN(C(=O)CCN1C(=O)/C(=C/c2ccccc2)SC1=S)C1CCS(=O)(=O)C1` (stereo not given), the Potency was inconclusive [inhibitor, single point].
With `COc1cc(C(=O)NCc2ccc(F)cc2)cc(Cl)c1OC` the Potency was inconclusive [inhibitor, full curve, poor fit].
With `CCOC(=O)C1CCN(C(=S)Nc2ccc(S(N)(=O)=O)cc2)CC1` the Potency was inconclusive [inhibitor, single point].
With `N#CC1=C(N)NC(SCC(=O)c2ccc(Cl)cc2)=C(C#N)C12CCCC2` the Potency was inconclusive [inhibitor, partial curve].
For `CCc1ccc(NC(=O)N2CCc3ccccc3C2)cc1`, the Potency was inconclusive [inhibitor, single point].
With `CCOC(=O)c1c(NC(=O)CN(CC)CC)sc2c1CCN(C(=O)OCC)C2` the Potency was active: 2.82 µM.
With `COc1ccc(CN(C(=O)CCC(=O)N2CCCCC2)c2nccs2)cc1OC` the Potency was inconclusive [inhibitor, single point].
In the case of `CC(C)Cn1c(N)c(C(=O)COC(=O)c2ccc(Br)cc2)c(=O)n(C)c1=O`, the Potency is reported as inconclusive [inhibitor, partial curve].
For `CCC(C)NC(=O)C1CCN(S(=O)(=O)CC)CC1` (stereo not given), the Potency was “inactive”.
In the case of `COc1ccc(C2=NN(C(=O)c3cccs3)C(c3ccc(OC)cc3)C2)cc1` (stereo not given), the Potency is reported as inconclusive [inhibitor, partial curve].
In the case of `Cc1ccc(NC(=O)c2cc(Cl)nc3ccccc23)cc1`, the Potency is reported as “inactive”.
For `O=S(=O)(c1cc(F)ccc1F)N1CCN(c2ncnc3ccccc23)CC1`, the Potency was active: 3.16 µM.
With `C[n+]1c(/C=C/c2ccc(O)cc2)ccc2ccccc21` the Potency was inconclusive [inhibitor, single point].
In the case of `O=[N+]([O-])c1cc(C(F)(F)F)ccc1NCCNC(=S)Nc1ccc(Cl)cc1`, the Potency is reported as inconclusive [inhibitor, single point].
In the case of `CCOC(=O)c1ccc(NC(=S)N(CCCN2CCN(CC)CC2)Cc2ccco2)cc1`, the Potency is reported as inconclusive [inhibitor, partial curve, poor fit].
With `CN(CCc1ccccc1)C(=O)c1ccc(NC(=O)Cc2ccc(NC(=O)C3CCN(S(=O)(=O)c4cccc([N+](=O)[O-])c4)CC3)cc2)cc1` the Potency was inconclusive [inhibitor, partial curve].
For `Cc1ccc(C(=O)OCC(=O)Nc2ccc3c(c2)OCO3)o1`, the Potency was “inactive”.
For `CCN(C[C@H]1N[C@@](C)(C(=O)OC)[C@H]2C(=O)N(C)C(=O)[C@@H]12)C(=O)Nc1ccc(OC)cc1`, the Potency was active: 2.51 µM.
For `CCN(CC)C(=O)CSc1nc(COc2ccccc2)nc2ccccc12`, the Potency was inconclusive [inhibitor, single point].
For `COc1ccc(OC)c(N(CC(=O)Nc2ccccc2)S(=O)(=O)c2ccccc2)c1`, the Potency was inconclusive [inhibitor, single point].
For `Cn1c(=O)cc(N)n(-c2ccccc2)c1=O`, the Potency was “inactive”.
With `O=C(CCCCCn1c(=S)[nH]c2ccccc2c1=O)NCc1ccc2c(c1)OCO2` the Potency was inconclusive [inhibitor, single point].
In the case of `Cc1noc(C)c1S(=O)(=O)N1CCC(C(=O)N2CCN(c3ccc(Cl)cc3)CC2)CC1`, the Potency is reported as inconclusive [inhibitor, single point].
In the case of `N#Cc1cn(-c2ccccc2)nc1-c1cc2ccccc2oc1=O`, the Potency is reported as inconclusive [inhibitor, single point].
For `Cc1ccc(S(=O)(=O)N2CCN(c3ccc(C(F)(F)F)cc3[N+](=O)[O-])CC2)cc1`, the Potency was inconclusive [inhibitor, single point].
With `COc1ccccc1CNC(=O)c1nn(C)c2c1CS(=O)(=O)c1ccccc1-2` the Potency was “inactive”.
With `CCOc1ccccc1NC(=O)C(c1ccccc1)N1CCN(C(=O)c2ccco2)CC1` (stereo not given) the Potency was inconclusive [inhibitor, partial curve, poor fit].
For `S=c1[nH]nc(-c2cc3c(s2)-c2ccccc2CC3)o1`, the Potency was “inactive”.
In the case of `O=C(/C=C/c1ccccc1Cl)NC(=S)Nc1ccccc1C(=O)NC1CCCCC1`, the Potency is reported as “inactive”.
With `Cn1c(CNc2cccc(Cl)c2)nnc1SCC(=O)OC1CCCCC1` the Potency was “inactive”.
For `Cc1nn(-c2ccccc2)c(Cl)c1C(=O)N(C)CC(=O)Nc1cccc(F)c1`, the Potency was inconclusive [inhibitor, full curve].
For `COC(=O)c1c(NC(=O)CSc2nnnn2-c2ccccc2)sc2c1CCC(C)C2` (stereo not given), the Potency was inconclusive [inhibitor, single point].
In the case of `CN(C)CCCN1C(=O)c2cccc3c(Br)ccc(c23)C1=O`, the Potency is reported as inconclusive [inhibitor, single point].

Reference: PubChem BioAssay AID651820 (National Center for Advancing Translational Sciences (NCATS), 2012)
% is set by controls: 0 for no effect and ±100 for the full control effect; potency is the fitted concentration of half-maximal effect; tags give direction and shape of the fitted curve.
